What follows are compounds tested against human cannabinoid CB2 receptor (Homo sapiens, UniProt P34972) (assay: Cannabinoid CB2 receptor agonist activity in yeast cells (FDGlu fluorescence)). Details: read-out: efficacy (Emax) at the cloned human cannabinoid CB2 receptor.
human cannabinoid CB2 receptor, sequence (P34972 whole entry): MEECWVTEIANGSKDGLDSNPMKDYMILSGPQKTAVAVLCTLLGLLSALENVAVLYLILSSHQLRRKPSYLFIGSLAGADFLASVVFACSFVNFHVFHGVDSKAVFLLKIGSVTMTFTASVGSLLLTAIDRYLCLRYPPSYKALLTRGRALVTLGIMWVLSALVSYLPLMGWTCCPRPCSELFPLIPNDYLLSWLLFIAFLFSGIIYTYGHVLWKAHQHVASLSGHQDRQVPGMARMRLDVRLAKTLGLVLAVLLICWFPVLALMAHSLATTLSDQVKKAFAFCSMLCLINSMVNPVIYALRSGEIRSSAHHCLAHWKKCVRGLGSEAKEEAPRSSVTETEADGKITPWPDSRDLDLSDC
In the case of O=C(NCC1CCCC1)c1cnc(Nc2cccc(Cl)c2)nc1C(F)(F)F [Example 2], the Emax is reported as greater than 50%. With O=C(NCC1CCCCC1)c1cnc(Nc2cccc(Cl)c2)nc1C(F)(F)F [Example 4, 2-(3-Chlorophenylamino)-4-trifluoromethylpyrimidine-5-carboxylic acid cyclohexylmethylamide] the Emax was greater than 50%. Compound O=C(NCC1CCOCC1)c1cnc(Nc2cccc(Cl)c2)nc1C(F)(F)F [Example 22, 2-(3-Chlorophenylamino)-4-trifluoromethylpyrimidine-5-carboxylic acid (tetrahydro-pyran-4-ylmethyl)-amide] has an Emax greater than 50%. Compound O=C(NCC1CCOCC1)c1cnc(Nc2cccc(Cl)c2Cl)nc1C(F)(F)F [Example 33, 2-(2,3-Dichlorophenylamino)-4-trifluoromethylpyrimidine-5-carboxylic acid (tetrahydropyran-4-ylmethyl)amide] has an Emax greater than 50%. For O=C(NCC1CCOCC1)c1cnc(Nc2ccc(Cl)cc2Cl)nc1C(F)(F)F [Example 34, 2-(2,4-Dichlorophenylamino)-4-trifluoromethylpyrimidine-5-carboxylic acid (tetrahydropyran-4-ylmethyl)-amide], the Emax was greater than 50%. In the case of O=C(NCC1CCOCC1)c1cnc(Nc2cc(Cl)ccc2Cl)nc1C(F)(F)F [Example 35, 2-(2,5-Dichlorophenylamino)-4-trifluoromethylpyrimidine-5-carboxylic acid (tetrahydropyran-4-ylmethyl)-amide], the Emax is reported as greater than 50%. Work on O=C(NCC1CCOCC1)c1cnc(Nc2cc(Cl)cc(Cl)c2)nc1C(F)(F)F [Example 36, 2-(3,5-Dichlorophenylamino)-4-trifluoromethylpyrimidine-5-carboxylic acid (tetrahydropyran-4-ylmethyl)-amide] yielded an Emax greater than 50%. In the case of O=C(NCC1CCC1)c1cnc(Nc2cccc(Cl)c2)nc1C(F)(F)F [Example 54, 2-(3 Chlorophenylamino)-4-trifluoromethylpyrimidine-5-carboxylic acid cyclobutylmethyl-amide], the Emax is reported as greater than 50%. Work on O=C(NCC1CCOCC1)c1cnc(Nc2c(Cl)cccc2Cl)nc1C(F)(F)F [Example 55, 2-(2,6-Dichlorophenylamino)-4-trifluoromethyl-pyrimidine-5-carboxylic acid (tetrahydro-pyran-4-ylmethyl)-amide] yielded an Emax greater than 50%. With CC(C)CNC(=O)c1cnc(Nc2cccc(Cl)c2)nc1C(F)(F)F [Example 210] the Emax was greater than 50%. Work on O=C(NCC1CCOCC1)c1cnc(Nc2cc(Cl)ccc2F)nc1C(F)(F)F [Example 213] yielded an Emax greater than 50%. Work on O=C(NCC1CCOCC1)c1cnc(Nc2cc(F)cc(F)c2)nc1C(F)(F)F [Example 214, 2-(3,5-Difluorophenylamino)-4-trifluoromethyl-pyrimidine-5-carboxylic acid (tetrahydro-pyran-4-ylmethyl)-amide] yielded an Emax greater than 50%. For O=C(NCC1CCOCC1)c1cnc(Nc2ccc(F)cc2Cl)nc1C(F)(F)F [Example 233, 2-(2-Chloro-4-fluoro-phenylamino)-4-trifluoromethyl-pyrimidine-5 carboxylic acid (tetrahydro-pyran-4-ylmethyl)-amide], the Emax was greater than 50%. With O=C(NCC1CCOCC1)c1cnc(Nc2ccc(Cl)c(Cl)c2)nc1C(F)(F)F [Example 250, 2-(3,4-Dichlorophenylamino)-4-trifluoromethylpyrimidine-5-carboxylic acid (tetrahydro-pyran-4-ylmethyl)-amide] the Emax was greater than 50%.
